The text below walks through data of PubChem BioAssay (NCI).

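Step 1: Grow cells in 96-well plates. Step 2: Expose to compound for 48 hours at 5 concentrations. Step 3: Interpolate endpoints linearly; if unreached, use highest concentration. The concentration for 50% growth inhibition is given as GI50. TGI is the concentration that stops growth completely.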

The assay has as its system NCI-H322M lung. Briefly: NCI tumour cell line growth inhibition, 48 h.

`CC(=O)N1CCN(Cc2ccc3c(NNC(=O)c4cnccn4)nc4cc(F)ccc4n23)CC1`: the GI50 was 0.347 µM and the TGI came out at 53 µM.
Taken in the same sequence, the figures for `COc1ccc2c(c1)c(-c1cc(N)n3nc(-c4c[nH]c5ccccc45)cc3n1)cn2C` were 1.85 µM and 4.1 µM.
Taken in the same sequence, the figures for `CCCCCc1ccc(S(=O)(=O)N(C(C)=O)c2cc(-c3csc(N(C)C(C)=O)n3)ccc2N2CCN(C)CC2)cc1` were 8 µM and 15.6 µM.
Taken in the same sequence, the figures for `Clc1cccc(N/N=C/c2c[nH]c3ccc(Br)cc23)n1` were 11.2 µM and 23.2 µM.
For `CCCCSc1nc(Nc2ccc(/C(C)=N/NC(N)=S)cc2)c(C#N)c(-c2ccc(OC)cc2)n1`, the GI50 is 20.7 µM and the TGI stood at 63.7 µM.
The corresponding values for `S=C(NCCc1ccccc1)Nc1ccc(OCc2nc3ccc(Cl)cc3[nH]2)cc1` are 10.7 µM and 22.5 µM.
